Measurements as given in PubChem BioAssay (Tox21).
Some structures have more than one record in an assay (separate samples or runs), and their calls can disagree. Active and inactive are the calls of the source. Where a call stands in place of a potency, no number is given. Unless noted, calls come from the whole dose curve; as a rule, active = well fitted curve in the direction sought with a large enough effect in the repeat runs; inconclusive = weak or mixed curves; inactive = no such curve, though single readings can be large; an effect the other way counts as inactive or inconclusive.

Key:
[1] = target: Estrogen receptor (Homo sapiens) (UniProt P03372); assay: qHTS assay to identify small molecule agonists of the estrogen receptor alpha (ER-alpha) signaling pathway (AID 743075; calls by dose curve;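 note: HEK293 GripTite cells with ER-alpha and UAS-driven beta-lactamase reporter; potency is the fitted concentration of half-maximal effect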); conditions: HEK293 ER-alpha-UAS-bla, beta-lactamase FRET ratio, 18 h; activation: at 70.1 µM (top of the series) unless noted
[2] = system: thyroid hormone receptor (rat, GH3 cells); assay: qHTS assay to identify small molecule agonists of the thyroid receptor (TR) signaling pathway (AID 743066; calls by dose curve; note: potency is the fitted concentration of half-maximal effect); conditions: GH3.TRE-Luc cells, TR agonist luciferase, 24 h; activation: at 83.9 µM (top of the series) unless noted
[3] = qHTS assay to identify small molecule antagonists of the estrogen receptor beta (ER-beta) signaling pathway - cell viability counter screen (AID 1259382); note: nearly all actives have a fitted effect of over 55% in size; note: potency is the fitted concentration of half-maximal effect
Summary of the method: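 Cytotoxicity counter screen multiplexed with the beta-lactamase antagonist assay: GripTite HEK293T ER-beta-bla cells were treated 16 hr with test chemicals in the presence of 1nM 17-beta-estradiol, and viability was measured by CellTiter-Glo.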

[4] = qHTS assay to identify small molecule agonists of the TGF-beta/Smad signaling pathway (AID 1346859; active = well fitted activation curve with a large enough effect in the signal ratio in the repeat runs, not every such curve was filed as active; inconclusive = weak or mixed curves; the % refers to the signal ratio; note: potency is the fitted concentration of half-maximal effect)
Summary of the method: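 Stable Smad binding element-beta-lactamase HEK 293T cells; 5 hr compound exposure at 37 C under 5% CO2; 2 hr room-temperature substrate step; fluorescence excited at 405 nm, collected at 460 nm and 530 nm.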

[5] = A CellTox Green Cytotoxicity Assay to monitor cytotoxicity in HEK293 cells - 24 hour (AID 1224875); note: nearly all actives have a fitted effect of over 45% in size; note: potency is the fitted concentration of half-maximal effect
Summary of the method: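 Cells (HEK293, 600/well) and dye reagent are dispensed together. After 5 h at 37 C, 23 nL compound is pinned in. Plates stay at 37 C for 40 h with fluorescence read at 0h, 8h, 16h, 24h, 32h and 40h.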

[6] = qHTS assay to identify small molecule antagonists of the TGF-beta/Smad signaling pathway - cell viability counter screen (AID 1346824); note: nearly all actives have a fitted effect of over 50% in size; note: potency is the fitted concentration of half-maximal effect
Summary of the method: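 SBE-bla HEK 293T cells, incubated overnight, then compound plus 0.25 ng/mL TGF-beta1 (stock added) for 5 hr at 37 C. Viability was read in the same wells by CellTiter-Glo luminescence after 30 min at room temperature.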

Aromatase (Homo sapiens) = Aromatase (Homo sapiens) (UniProt P11511); assay: qHTS assay to identify aromatase inhibitors (AID 743083); note: nearly all actives have a fitted effect of over 55% in size; note: potency is the fitted concentration of half-maximal effect
[7] = qHTS assay to identify small molecule antagonists of the retinoic acid receptor (RAR) signaling pathway (AID 1159552; note: nearly all actives have a fitted effect of over 50% in size; note: potency is the fitted concentration of half-maximal effect)
Summary of the method: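 Using a RARE-driven luciferase construct in C3RL4 cells, retinol at 1 uM final provided the agonist stimulus while compounds were co-applied. After 6 hours at 37 C, luminescence was recorded to flag inhibitors of retinol signaling.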

[8] = qHTS assay to identify small molecule agonists of the androgen receptor (AR) signaling pathway in the presence of an antagonist - cell viability counter screen (AID 1259379); note: potency is the fitted concentration of half-maximal effect; nearly all actives have a fitted effect of over 25% in size
Summary of the method: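 Cytotoxicity is assessed by CellTiter-Fluor in MDA-kb2 cells carrying an MMTV-driven luciferase reporter. Cells receive 3.0uM nilutamide plus compounds at 15 concentrations and incubate 16 hr at 37C without CO2 before fluorescence reading.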

[9] = target: Bile acid receptor (Homo sapiens) (UniProt Q96RI1); assay: qHTS assay to identify small molecule antagonists of the farnesoid-X-receptor (FXR) signaling pathway (AID 743217; active = well fitted inhibition curve with a large enough effect in the signal ratio in the repeat runs, not every such curve was filed as active; inconclusive = weak or mixed curves, or effect the other way; inactive = no such curve, though single readings can be large or run the other way; the % refers to the signal ratio; note: potency is the fitted concentration of half-maximal effect); conditions: HEK293T FXR-UAS-bla, beta-lactamase ratio, CDCA-stimulated, 16 h; activity change, negative = inhibition: at 62.6 µM (top of the series) unless noted
Summary of the method: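 Cells carrying a UAS-driven beta-lactamase reporter (GeneBLAzer FXR-UAS-bla HEK 293T) were plated and rested 5 h at 37 °C. Compounds in DMSO were added alongside chenodeoxycholic acid agonist at 50 uM final and left 16 h at 37 °C before FRET substrate readout.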

[10] = qHTS assay to identify small molecule antagonists of the androgen receptor (AR) signaling pathway using the MDA cell line - cell viability counter screen (AID 743041; note: nearly all actives have a fitted effect of over 45% in size); conditions: MDA-kb2 viability, CellTiter-Fluor, 16 h, cells co-treated with R1881 androgen agonist; viability change, negative = cytotoxic: at 70.3 µM (top of the series)
Summary of the method: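 Compound exposure lasted 16 h at 37C in MDA-kb2 AR-luc cells stimulated with R1881. Protease-based CellTiter-Fluor reagent was applied for the final 30 min and fluorescence measured.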

[11] = qHTS RealTime-Glo MT Cell Viability Assay in HepG2 cells - 24 hour (AID 1224867); note: nearly all actives have a fitted effect of over 50% in size
Summary of the method: (§1)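 Luminescence read-out: viable HepG2 cells reduce a prosubstrate to a NanoLuc substrate, giving a signal proportional to live cell number. Reads taken at 0, 8, 16, 24, 32 and 40 h of compound exposure at 37 C.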

[12] = qHTS RealTime-Glo MT Cell Viability Assay in HepG2 cells - 0 hour (AID 1224889); note: potency is the fitted concentration of half-maximal effect; nearly all actives have a fitted effect of over 50% in size
Summary of the method: as §1

[13] = target: Glucocorticoid receptor (Homo sapiens) (UniProt P04150); assay: qHTS assay to identify small molecule agonists of the glucocorticoid receptor (GR) signaling pathway (AID 720691; active = well fitted activation curve with a large enough effect in the signal ratio in the repeat runs, not every such curve was filed as active; inconclusive = weak or mixed curves, or effect the other way; inactive = no such curve, though single readings can be large or run the other way; the % refers to the signal ratio); conditions: GR-bla HeLa, beta-lactamase reporter ratio, 18 h; activation: at 62.4 µM (top of the series) unless noted
Summary of the method: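 Steps: seed GR-bla HeLa cells, incubate 4 h at 37 C/5% CO2; pin-transfer DMSO-dissolved compounds; incubate 18 h at 37 C; add LiveBLAzer B/G FRET substrate; after 2 h at room temperature, measure fluorescence.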

[14] = target: Androgen receptor (Homo sapiens) (UniProt P10275); assay: qHTS assay to identify small molecule agonists of the androgen receptor (AR) signaling pathway (AID 743036; active = well fitted activation curve with a large enough effect in the signal ratio in the repeat runs, with a control signal flat, not every such curve was filed as active; inconclusive = weak or mixed curves, or effect the other way; inactive = no such curve, though single readings can be large or run the other way; the % refers to the signal ratio; note: potency is the fitted concentration of half-maximal effect); conditions: HEK293 AR-UAS-bla GripTite, beta-lactamase FRET ratio, 16 h; activation: at 62.4 µM (top of the series) unless noted
Summary of the method: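 In this Tox21 qHTS, 2,000 HEK293 AR-bla cells per well were incubated with compounds for 16 h at 37C and 5% CO2. Fluorescence intensity was recorded 2 h after adding LiveBLAzer B/G FRET substrate at room temperature.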

[15] = qHTS assay for small molecule activators of the heat shock response signaling pathway (AID 743210; active = well fitted activation curve with a large enough effect in the signal ratio in the repeat runs, with a control signal flat, not every such curve was filed as active; inconclusive = weak or mixed curves; the % refers to the signal ratio;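 note: HeLa cells with beta-lactamase reporter driven by heat shock elements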); conditions: HeLa HSE-bla reporter, beta-lactamase ratio, 5 h; activation: at 62.6 µM (top of the series) unless noted
Summary of the method: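 Following overnight attachment, HSE-bla HeLa cells received test compounds for 5 h at 37 C; beta-lactamase activity was then detected via FRET substrate fluorescence.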
Tags give direction and shape of the fitted curve or compound fluorescence and quenching.

Chain of UniProt P11511 (P11511 whole entry, looked up): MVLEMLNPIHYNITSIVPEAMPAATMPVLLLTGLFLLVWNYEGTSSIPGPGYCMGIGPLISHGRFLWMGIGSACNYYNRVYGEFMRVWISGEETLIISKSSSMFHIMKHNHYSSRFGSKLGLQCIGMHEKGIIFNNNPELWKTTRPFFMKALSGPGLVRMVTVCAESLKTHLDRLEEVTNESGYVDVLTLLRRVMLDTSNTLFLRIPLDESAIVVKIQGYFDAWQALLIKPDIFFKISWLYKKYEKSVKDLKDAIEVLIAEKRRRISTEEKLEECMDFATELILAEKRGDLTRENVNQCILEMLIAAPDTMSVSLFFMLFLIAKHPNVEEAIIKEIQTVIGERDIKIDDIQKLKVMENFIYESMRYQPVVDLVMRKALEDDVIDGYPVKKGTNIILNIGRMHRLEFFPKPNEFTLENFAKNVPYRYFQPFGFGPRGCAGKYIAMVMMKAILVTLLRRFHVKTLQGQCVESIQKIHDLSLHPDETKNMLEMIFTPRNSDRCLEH
Chain of UniProt P03372 (P03372 whole entry, looked up): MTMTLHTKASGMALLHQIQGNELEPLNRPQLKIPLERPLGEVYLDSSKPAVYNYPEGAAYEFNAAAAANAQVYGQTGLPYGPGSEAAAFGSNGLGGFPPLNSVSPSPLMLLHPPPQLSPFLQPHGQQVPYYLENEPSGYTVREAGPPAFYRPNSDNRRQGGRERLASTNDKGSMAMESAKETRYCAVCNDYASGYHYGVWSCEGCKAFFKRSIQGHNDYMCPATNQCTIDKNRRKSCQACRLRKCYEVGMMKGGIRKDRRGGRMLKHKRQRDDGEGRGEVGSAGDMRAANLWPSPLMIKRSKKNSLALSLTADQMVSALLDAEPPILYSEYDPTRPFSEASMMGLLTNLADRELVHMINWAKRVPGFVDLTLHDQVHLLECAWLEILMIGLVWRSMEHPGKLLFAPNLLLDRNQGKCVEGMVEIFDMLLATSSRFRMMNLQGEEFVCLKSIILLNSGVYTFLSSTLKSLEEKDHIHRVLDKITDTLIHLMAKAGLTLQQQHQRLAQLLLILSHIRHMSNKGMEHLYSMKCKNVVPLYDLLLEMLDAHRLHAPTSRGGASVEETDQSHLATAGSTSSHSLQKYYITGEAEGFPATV
Chain of UniProt Q96RI1 (Q96RI1 whole entry, looked up): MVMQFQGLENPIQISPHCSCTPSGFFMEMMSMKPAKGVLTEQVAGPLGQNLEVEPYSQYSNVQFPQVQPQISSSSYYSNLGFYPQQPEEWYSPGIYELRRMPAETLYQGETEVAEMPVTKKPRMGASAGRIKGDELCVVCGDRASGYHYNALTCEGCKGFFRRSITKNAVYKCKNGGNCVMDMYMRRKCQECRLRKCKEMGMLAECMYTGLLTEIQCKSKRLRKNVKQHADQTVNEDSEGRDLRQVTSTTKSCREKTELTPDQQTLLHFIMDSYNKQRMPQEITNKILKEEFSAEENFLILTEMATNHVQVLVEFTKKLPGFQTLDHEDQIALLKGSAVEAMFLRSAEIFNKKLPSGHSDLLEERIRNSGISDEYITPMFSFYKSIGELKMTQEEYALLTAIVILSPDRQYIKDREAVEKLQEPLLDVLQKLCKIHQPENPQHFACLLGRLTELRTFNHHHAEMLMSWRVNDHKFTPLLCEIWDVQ
Chain of UniProt P04150 (P04150 whole entry, looked up): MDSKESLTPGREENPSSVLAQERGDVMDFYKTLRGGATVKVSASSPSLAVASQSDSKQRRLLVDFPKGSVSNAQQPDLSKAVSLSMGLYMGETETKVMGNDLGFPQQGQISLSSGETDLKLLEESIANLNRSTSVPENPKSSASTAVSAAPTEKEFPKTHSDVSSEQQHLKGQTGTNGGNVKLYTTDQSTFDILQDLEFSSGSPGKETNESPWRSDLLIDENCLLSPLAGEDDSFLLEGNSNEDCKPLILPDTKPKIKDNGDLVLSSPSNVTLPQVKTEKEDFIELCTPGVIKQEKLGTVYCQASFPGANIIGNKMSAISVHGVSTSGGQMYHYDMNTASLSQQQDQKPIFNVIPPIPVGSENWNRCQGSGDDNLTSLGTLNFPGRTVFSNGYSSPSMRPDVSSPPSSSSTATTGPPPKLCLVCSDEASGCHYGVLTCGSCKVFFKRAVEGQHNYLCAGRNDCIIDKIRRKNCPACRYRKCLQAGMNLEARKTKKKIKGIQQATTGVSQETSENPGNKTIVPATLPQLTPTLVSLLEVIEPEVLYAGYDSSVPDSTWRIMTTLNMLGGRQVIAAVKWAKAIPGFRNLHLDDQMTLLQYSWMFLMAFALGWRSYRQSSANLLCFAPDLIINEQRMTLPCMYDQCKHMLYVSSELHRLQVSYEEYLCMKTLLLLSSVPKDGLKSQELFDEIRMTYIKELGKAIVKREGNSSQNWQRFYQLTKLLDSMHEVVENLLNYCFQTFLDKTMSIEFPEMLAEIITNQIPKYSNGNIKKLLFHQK
Chain of UniProt P10275 (P10275 whole entry, looked up): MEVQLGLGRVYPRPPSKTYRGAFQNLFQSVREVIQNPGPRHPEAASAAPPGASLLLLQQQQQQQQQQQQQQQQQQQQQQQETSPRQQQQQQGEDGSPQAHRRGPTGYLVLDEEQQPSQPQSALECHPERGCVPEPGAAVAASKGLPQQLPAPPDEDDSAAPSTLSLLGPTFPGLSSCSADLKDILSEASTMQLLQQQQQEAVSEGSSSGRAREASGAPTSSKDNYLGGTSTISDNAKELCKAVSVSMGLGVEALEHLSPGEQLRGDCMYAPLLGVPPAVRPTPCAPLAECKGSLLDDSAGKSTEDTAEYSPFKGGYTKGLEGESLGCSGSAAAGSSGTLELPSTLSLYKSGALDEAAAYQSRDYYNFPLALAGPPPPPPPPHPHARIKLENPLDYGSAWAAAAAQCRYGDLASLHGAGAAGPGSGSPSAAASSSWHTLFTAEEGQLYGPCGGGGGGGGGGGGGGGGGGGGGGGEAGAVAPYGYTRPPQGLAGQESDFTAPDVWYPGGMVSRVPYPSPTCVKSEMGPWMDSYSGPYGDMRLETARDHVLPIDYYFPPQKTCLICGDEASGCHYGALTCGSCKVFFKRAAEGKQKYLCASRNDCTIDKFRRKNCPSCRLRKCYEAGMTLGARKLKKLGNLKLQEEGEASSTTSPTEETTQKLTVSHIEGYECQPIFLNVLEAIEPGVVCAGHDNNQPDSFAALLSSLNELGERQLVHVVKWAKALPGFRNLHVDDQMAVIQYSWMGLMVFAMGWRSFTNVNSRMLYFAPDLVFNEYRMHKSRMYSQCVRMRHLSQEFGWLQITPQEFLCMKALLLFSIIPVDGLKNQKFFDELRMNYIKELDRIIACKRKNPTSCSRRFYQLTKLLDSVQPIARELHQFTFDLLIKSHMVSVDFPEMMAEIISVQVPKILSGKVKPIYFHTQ

ClC(Cl)(Cl)c1ccccc1
Potency [1]: inconclusive [falling, full curve]

CC1CN1P(=O)(N1CC1C)N1CC1C (configuration not stated)
Potency [2]: inactive

CCCCOC(=O)[C@@H](C)Oc1ccc(Oc2ccc(C#N)cc2F)cc1
Potency [3]: inactive
Potency [4]: inconclusive [rising, partial curve]

CC(Cl)CN(C)C (configuration not stated)
Potency [5]: inconclusive [activator, single point]
Potency [6]: inconclusive [rising, partial curve, poor fit]

CCOC(=O)CCl
Potency (Aromatase (Homo sapiens)): inactive
Potency [7]: inactive
Potency [4]: inactive

Nc1c(Oc2ccccc2)cc(O)c2c1C(=O)c1ccccc1C2=O
Potency [5]: inactive
Potency [8]: inconclusive [cytotoxic, partial curve]

CN1CCC(N(Cc2ccccc2)c2ccccc2)CC1
Potency [3]: inconclusive [cytotoxic, partial curve, poor fit]

CC(C)COC(=O)c1ccccc1C(=O)OCC(C)C
Potency [1]: active: 0.0138 µM [inconclusive]
Potency [9]: inconclusive [activator, partial curve, poor fit]

NNCCO
Potency [10]: inactive

CCCCc1ccc(O)cc1
Potency (Aromatase (Homo sapiens)): inconclusive [inhibitor, partial curve, poor fit]

COC(=O)C1=CCCN(C)C1
Potency [11]: inactive

CCC(=O)C(CCN(C)C)(c1ccccc1)c1ccccc1
Potency [7]: inconclusive [inhibitor, partial curve, poor fit]

CCOC(=O)N(C)C(=O)CSP(=S)(OCC)OCC
Potency (Aromatase (Homo sapiens)): inconclusive [inhibitor, partial curve, poor fit]
Potency [12]: inconclusive [cytotoxic, partial curve]

OCC(O)CCl (configuration not stated)
Potency [13]: inactive
Potency [6]: inactive

N[C@@H](Cc1ccc(Oc2cc(I)c(O)c(I)c2)c(I)c1)C(=O)O
Potency [2]: active: 0.168 µM

CCCOc1nn(C(=O)NS(=O)(=O)c2ccccc2C(=O)OC)c(=O)n1C
Potency [14]: inactive
Potency [6]: inconclusive [cytotoxic, single point]

O=C1CN2CCOC2(c2ccccc2Cl)c2cc(Cl)ccc2N1 (configuration not stated)
activity change, negative = inhibition [9]: inconclusive: 10.2%

c1ccc(C2CO2)cc1 (configuration not stated)
Potency [13]: inactive
Potency [15]: inactive
Potency [11]: inactive

O=C(O)C(F)(F)C(F)(F)C(F)(F)C(F)(F)C(F)(F)C(F)(F)F
Potency [15]: inactive
Potency [7]: inconclusive [inhibitor, partial curve]
Potency [3]: inconclusive [cytotoxic]

Cc1ccc(S(=O)(=O)N[C@@H](CCCCN)C(=O)CCl)cc1
Potency [14]: inconclusive [falling, partial curve, poor fit]
activation [2]: inconclusive: -7.86% [phenotype inactive]
Potency [1]: inconclusive [falling, partial curve]
Potency [9]: inactive
Potency [7]: inconclusive [inhibitor, full curve]
